# According to the supplement of paper PMC8728848:
# The list shows a part of the results.
# Columns and labels:
# Experiment in all cases: glycan array binding signal (z-score within array); higher = stronger binding
# Details in all cases: glycan notation: IUPAC condensed, linker removed
# [1] = biological target: Gal(b1-2)Gal
# In short: (§1)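 Negative Z-scores can be read as non-binding. The Z-score is calculated within each array and then averaged across arrays of one protein sequence at different concentrations or buffers and across linkers. Arrays, 3228 in all, were curated from the Consortium for Functional Glycomics database and kept only where the protein sequence was available.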
# [2] = biological target: Gal(b1-3)Gal
# In short: as §1
# [3] = biological target: Gal(b1-3)Gal(b1-4)GlcNAc
# In short: as §1
# [4] = biological target: Gal(b1-3)GalNAc
# In short: as §1
# [5] = biological target: Gal(b1-3)GalNAc(a1-3)[Fuc(a1-2)]Gal(b1-4)Glc
# In short: as §1
# [6] = biological target: Gal(b1-3)GalNAc(a1-3)[Fuc(a1-2)]Gal(b1-4)GlcNAc
# In short: as §1
# [7] = biological target: Gal(b1-3)GalNAc(b1-3)Gal
# In short: as §1
# [8] = biological target: Gal(b1-3)GalNAc(b1-3)Gal(a1-4)Gal(b1-4)Glc
# In short: as §1
# [9] = biological target: Gal(b1-3)GalNAc(b1-4)Gal(b1-4)Glc
# In short: as §1
# [10] = biological target: Gal(b1-3)GalNAc(b1-4)[Neu5Ac(a2-3)]Gal(b1-4)Glc
# In short: as §1
# [11] = biological target: Gal(b1-3)GlcNAc
# In short: as §1
# [12] = biological target: Gal(b1-3)GlcNAc(a1-3)Gal(b1-4)GlcNAc
# In short: as §1
# [13] = biological target: Gal(b1-3)GlcNAc(a1-6)Gal(b1-4)GlcNAc
# In short: as §1
# [14] = biological target: Gal(b1-3)GlcNAc(b1-2)Man
# In short: as §1
# [15] = biological target: Gal(b1-3)GlcNAc(b1-2)Man(a1-3)[Gal(b1-3)GlcNAc(b1-2)Man(a1-6)]Man(b1-4)GlcNAc(b1-4)GlcNAc
# In short: as §1
# [16] = biological target: Gal(b1-3)GlcNAc(b1-2)Man(a1-3)[Gal(b1-3)GlcNAc(b1-2)Man(a1-6)]Man(b1-4)GlcNAc(b1-4)[Fuc(a1-6)]GlcNAc
# In short: as §1
# [17] = biological target: Gal(b1-3)GlcNAc(b1-2)Man(a1-3)[GlcNAc(b1-4)][Gal(b1-3)GlcNAc(b1-2)Man(a1-6)]Man(b1-4)GlcNAc(b1-4)GlcNAc
# In short: as §1
# [18] = biological target: Gal(b1-3)GlcNAc(b1-2)[Gal(b1-3)GlcNAc(b1-6)]Man(a1-6)[Gal(b1-3)GlcNAc(b1-2)Man(a1-3)]Man(b1-4)GlcNAc(b1-4)GlcNAc
# In short: as §1
# [19] = biological target: Gal(b1-3)GlcNAc(b1-3)Gal(b1-3)GlcNAc
# In short: as §1
# [20] = biological target: Gal(b1-3)GlcNAc(b1-3)Gal(b1-4)Glc
# In short: as §1
# [21] = biological target: Gal(b1-3)GlcNAc(b1-3)Gal(b1-4)GlcNAc
# In short: as §1
# [22] = biological target: Gal(b1-3)GlcNAc(b1-3)Gal(b1-4)GlcNAc(b1-2)Man(a1-3)[Gal(b1-3)GlcNAc(b1-3)Gal(b1-4)GlcNAc(b1-2)Man(a1-6)]Man(b1-4)GlcNAc(b1-4)GlcNAc
# In short: as §1
# [23] = biological target: Gal(b1-3)GlcNAc(b1-3)Gal(b1-4)GlcNAc(b1-2)[Gal(b1-3)GlcNAc(b1-3)Gal(b1-4)GlcNAc(b1-6)]Man(a1-6)[Gal(b1-3)GlcNAc(b1-3)Gal(b1-4)GlcNAc(b1-2)Man(a1-3)]Man(b1-4)GlcNAc(b1-4)[Fuc(a1-6)]GlcNAc
# In short: as §1
# [24] = biological target: Gal(b1-3)GlcNAc(b1-3)Gal(b1-4)GlcNAc(b1-3)Gal(b1-4)GlcNAc(b1-2)[Gal(b1-3)GlcNAc(b1-3)Gal(b1-4)GlcNAc(b1-3)Gal(b1-4)GlcNAc(b1-6)]Man(a1-6)[Gal(b1-3)GlcNAc(b1-3)Gal(b1-4)GlcNAc(b1-3)Gal(b1-4)GlcNAc(b1-2)Man(a1-3)]Man(b1-4)GlcNAc(b1-4)[Fuc(a1-6)]GlcNAc
# In short: as §1
# [25] = biological target: Gal(b1-3)GlcNAc(b1-3)Gal(b1-4)GlcNAc(b1-6)[Gal(b1-3)GlcNAc(b1-3)]Gal(b1-4)Glc
# In short: as §1
# [26] = biological target: Gal(b1-3)GlcNAc(b1-3)Gal(b1-4)[Fuc(a1-3)]GlcNAc
# In short: as §1
# [27] = biological target: Gal(b1-3)GlcNAc(b1-3)Gal(b1-4)[Fuc(a1-3)]GlcNAc(b1-6)[Gal(b1-3)GlcNAc(b1-3)]Gal(b1-4)Glc
# In short: as §1
# [28] = biological target: Gal(b1-3)GlcNAc(b1-3)GalNAc
# In short: as §1
# [29] = biological target: Gal(b1-3)GlcNAc(b1-6)Gal(b1-4)GlcNAc
# In short: as §1
# [30] = biological target: Gal(b1-3)GlcNAc(b1-6)GalNAc
# In short: as §1
# [31] = biological target: Gal(b1-3)GlcNAc(b1-6)[Gal(b1-3)]GalNAc
# In short: as §1
# [32] = biological target: Gal(b1-3)GlcNAc6S
# In short: as §1
# [33] = biological target: Gal(b1-3)[Fuc(a1-4)]GlcNAc
# In short: as §1
# [34] = biological target: Gal(b1-3)[Fuc(a1-4)]GlcNAc(b1-2)Man
# In short: as §1
# [35] = biological target: Gal(b1-3)[Fuc(a1-4)]GlcNAc(b1-2)Man(a1-3)[Gal(b1-3)[Fuc(a1-4)]GlcNAc(b1-2)Man(a1-6)]Man(b1-4)GlcNAc(b1-4)[Fuc(a1-6)]GlcNAc
# In short: as §1
# [36] = biological target: Gal(b1-3)[Fuc(a1-4)]GlcNAc(b1-3)Gal(b1-3)[Fuc(a1-4)]GlcNAc
# In short: as §1
# [37] = biological target: Gal(b1-3)[Fuc(a1-4)]GlcNAc(b1-3)Gal(b1-4)[Fuc(a1-3)]GlcNAc
# In short: as §1
binder,measurement,setting,value
LecRKVI.2 (protein) RTTTNFAFRGFNGNQSKIRIEGAAMIKPDGLLRLTDRKSNVTGTAFYHKPVRLLNRNSTNVTIRSFSTSFVFVIIPSSSSNKGFGFTFTLSPTPYRLNAGSAQYLGVFNKENNGDPRNHVFAVEFDTVQGSRDDNTDRIGNDIGLNYNSRTSDLQEPVVYYNNDDHNKKEDFQLESGNPIQALLEYDGATQMLNVTVYPARLGFKPTKPLISQHVPKLLEIVQEEMYVGFTASTGKGQSSAHYVMGWSFSSGGERPIADVLILSELPPPPPNKAKKEGLNS,glycan array binding signal (z-score),[1],-0.34
same,glycan array binding signal (z-score),[2],0.45
same,glycan array binding signal (z-score),[3],-0.182
same,glycan array binding signal (z-score),[4],-0.373
same,glycan array binding signal (z-score),[5],-0.383
same,glycan array binding signal (z-score),[6],-0.338
same,glycan array binding signal (z-score),[7],-0.245
same,glycan array binding signal (z-score),[8],0.019
same,glycan array binding signal (z-score),[9],-0.346
same,glycan array binding signal (z-score),[10],-0.357
same,glycan array binding signal (z-score),[11],-0.297
same,glycan array binding signal (z-score),[12],-0.234
same,glycan array binding signal (z-score),[13],-0.312
same,glycan array binding signal (z-score),[14],-0.343
same,glycan array binding signal (z-score),[15],2.22
same,glycan array binding signal (z-score),[16],-0.373
same,glycan array binding signal (z-score),[17],0.217
same,glycan array binding signal (z-score),[18],0.629
same,glycan array binding signal (z-score),[19],-0.207
same,glycan array binding signal (z-score),[20],-0.387
same,glycan array binding signal (z-score),[21],-0.404
same,glycan array binding signal (z-score),[22],0.241
same,glycan array binding signal (z-score),[23],0.833
same,glycan array binding signal (z-score),[24],0.66
same,glycan array binding signal (z-score),[25],-0.26
same,glycan array binding signal (z-score),[26],-0.351
same,glycan array binding signal (z-score),[27],-0.36
same,glycan array binding signal (z-score),[28],0.521
same,glycan array binding signal (z-score),[29],-0.399
same,glycan array binding signal (z-score),[30],-0.311
same,glycan array binding signal (z-score),[31],0.611
same,glycan array binding signal (z-score),[32],0.039
same,glycan array binding signal (z-score),[33],-0.399
same,glycan array binding signal (z-score),[34],-0.297
same,glycan array binding signal (z-score),[35],0.278
same,glycan array binding signal (z-score),[36],-0.455
same,glycan array binding signal (z-score),[37],-0.304
